Where “and” joins values, the source holds several entries; their conditions need not be identical. Equal entries are not always repeated. Inconclusive results, whose numbers are uncertain, are shown with a selection of clear calls. Potencies beside an inconclusive call are fits to weak or partial responses and may not hold up. Calls of active or inactive are those of the source. Calls come from the whole dose curve; as a rule, active = well fitted curve in the direction sought with a large enough effect; inconclusive = small, poorly fitted or top-dose-only effect, or another doubt; inactive = no such curve, though single readings can be large; an effect the other way counts as inactive or inconclusive.
Tests used:
[1] = Viability qHTS for spleen associated tyrosine kinase inhibitor (SYKi) naive MV4-11 cells (AID 1963823); details: MV4-11 AML viability, CellTiter-Glo luminescence, 72 h; series mostly up to 45 µM; note: nearly all actives have a fitted effect of over 40% in size
Method in brief: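 SYKi-naive MV4-11 AML cells, 500 per well, were exposed to library compounds for 72 hr at 37 C, 5% CO2. Viability was then read by CellTiter-Glo luminescence after 10 min at room temperature.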

[2] = Quantitative highthroughput screen to assess conditional lethalithy of NOMO1 cells grown in RPMI1640 with dialyzed fetal bovine serum (RPMI+ds) (AID 1963877); note: nearly all actives have a fitted effect of over 30% in size
Method in brief: (§1)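 Each medium arm—HPLM with 10% dialyzed FBS, or RPMI1640 with 5 mM glucose and 10% untreated or dialyzed FBS—was screened against an 11-point, 3-fold compound titration for 48 h at 37 °C, with CellTiter-Glo luminescence as endpoint.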

[3] = Quantitative highthroughput screen to assess conditional lethalithy of P12 Ichikawa cells grown in Human Plasma-Like Medium with dialyzed fetal bovine serum (HPLM+ds) (AID 1963879); details: Potency: viability; note: nearly all actives have a fitted effect of over 35% in size
Method in brief: as §1

[4] = Quantitative highthroughput screen to assess conditional lethalithy of P12 Ichikawa cells grown in RPMI1640 with dialyzed fetal bovine serum (RPMI+ds) (AID 1963880); details: Potency: P12-Ichikawa viability; note: nearly all actives have a fitted effect of over 35% in size
Method in brief: as §1

[5] = Quantitative highthroughput screen to assess conditional lethalithy of P12 Ichikawa cells grown in RPMI1640 with untreated serum (RPMI+s) (AID 1963881); details: Potency: viability; note: nearly all actives have a fitted effect of over 35% in size
Method in brief: as §1

[6] = Quantitative highthroughput screen to assess conditional lethalithy of SEM cells grown in Human Plasma-Like Medium with dialyzed fetal bovine serum (HPLM+ds) (AID 1963882); note: nearly all actives have a fitted effect of over 35% in size
Method in brief: as §1

[7] = Quantitative highthroughput screen to assess conditional lethalithy of SEM cells grown in RPMI1640 with unreated serum (RPMI+s) (AID 1963883); details: SEM B-ALL cells, CellTiter-Glo viability, 48 h; viability: at 45.8 µM (top of the series); note: nearly all actives have a fitted effect of over 35% in size
Method in brief: as §1

[8] = Quantitative highthroughput screen to assess conditional lethalithy of SEM cells grown in RPMI1640 with dialyzed fetal bovine serum (RPMI+ds) (AID 1963884); details: SEM B-ALL cells, RPMI+dialyzed FBS, CellTiter-Glo viability, 48 h; viability: at 45.8 µM (top of the series); note: nearly all actives have a fitted effect of over 35% in size
Method in brief: as §1

[9] = Cellular viability qHTS for adrenocortical cancer (ACC) cell line NCI-H295R (AID 1963990); details: CellTiter-Glo ATP luminescence, 48 h; series mostly up to 46.1 µM; note: nearly all actives have a fitted effect of over 60% in size
Method in brief: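 Viability of NCI-H295R after 48 h of treatment (final up to 46 uM) measured through cellular ATP luminescence.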

[10] = Quantitative highthroughput screen to assess conditional lethalithy of NOMO1 cells grown in Human Plasma-Like Medium with dialyzed fetal bovine serum (HPLM+ds) (AID 1963878); details: NOMO1 AML cells in HPLM+ds, CellTiter-Glo viability, 48 h; viability: at 45.8 µM (top of the series); note: nearly all actives have a fitted effect of over 35% in size
Method in brief: as §1

[11] = Cellular viability qHTS for adrenocortical cancer (ACC) cell line SW-13 (AID 1963989); details: SW-13 ACC cells viability, CellTiter-Glo, 48 h; activity (max response): hits give low values; note: nearly all actives have a fitted effect of over 65% in size
Method in brief: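 Here, serum-free SW-13 cultures were dosed up to 46 uM. Following 48 h, ATP-dependent luminescence (CellTiter-Glo) reported viable cells, and logistic modeling produced IC50 values.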
Potency is the fitted concentration of half-maximal effect; tags give direction and shape of the fitted curve.

Structure (SMILES) | Potency [1] | Potency [2] | Potency [3] | Potency [4] | Potency [5] | Potency [6] | Potency [7] | Potency [8] | Potency [9] | Potency [10] | Potency [11]
Clc1ccc(COC(Cn2ccnc2)c2ccc(Cl)cc2Cl)c(Cl)c1 (stereo unspecified) | inconclusive: 11.8 µM [cytotoxic, partial curve] | inactive | inconclusive: 18.7 µM [cytotoxic, partial curve, poor fit] | inconclusive: 33.2 µM [cytotoxic, single point] | inconclusive: 33.2 µM [cytotoxic, single point] | inactive | inconclusive: 33.2 µM [cytotoxic, single point] | inconclusive: 18.7 µM [cytotoxic, partial curve, poor fit] | active: 10 µM |  | 
CCc1nc(-c2cccc(C)c2)c(-c2ccnc(NC(=O)c3ccccc3)c2)s1 | inconclusive: 20.9 µM [cytotoxic, partial curve] | inactive | inconclusive: 20.9 µM [cytotoxic, partial curve] |  | inconclusive: 23.5 µM [cytotoxic, single point] |  | inconclusive: 37.2 µM [cytotoxic, single point] | inconclusive: 20.9 µM [cytotoxic, partial curve] | active: 28.2 µM | inconclusive: 29.6 µM [cytotoxic, single point] | 
C[C@@H]1CN(CC(=O)N2CC(C)(C)c3ncc(Cc4ccc(F)cc4)cc32)[C@@H](CN2CCOC[C@H]2C)CN1 | inconclusive: 10.5 µM [cytotoxic, partial curve] | active: 20.9 µM | inactive |  |  |  | inconclusive: 16.6 µM [cytotoxic, partial curve, poor fit] | inactive | inconclusive: 31.6 µM [cytotoxic, single point] | inconclusive: 18.6 µM [cytotoxic, partial curve] | 
CNC1CCC(N(Cc2cccc(-c3ccncc3)c2)C(=O)c2sc3ccccc3c2Cl)CC1 (stereo unspecified) | active: 7.31 µM and active: 5.25 µM | active: 16.6 µM | active: 1.18 µM |  |  | active: 1.32 µM |  | active: 0.833 µM |  | active: 1.48 µM | active: 10 µM
COc1ccc(-c2ccc3ncc4c(c3c2)n(-c2ccc(N3CCNCC3)c(C(F)(F)F)c2)c(=O)n4C)cn1 | inconclusive: 0.0116 µM [cytotoxic, full curve] | active: 0.469 µM | active: 1.05 µM |  |  |  |  |  |  | active: 0.148 µM | active: 0.316 µM
Cc1cnc(Nc2ccc(OCCN3CCCC3)cc2)nc1Nc1cccc(S(=O)(=O)NC(C)(C)C)c1 | active: 146 nM and active: 186 nM | inactive | inactive |  |  | active: 10.5 µM | inactive | inconclusive: 16.6 µM [cytotoxic, partial curve, poor fit] |  | inactive | active: 12.6 µM
COc1cc([C@@H]2c3cc4c(cc3[C@H](O)[C@H]3COC(=O)[C@H]23)OCO4)cc(OC)c1OC | active: 26.6 nM and active: 26.3 nM | inconclusive: 0.0047 µM [cytotoxic, full curve] |  |  |  |  | active: 0.0019 µM |  |  | inconclusive: 0.0023 µM [cytotoxic, full curve] | 
N#CC(c1ccc(Cl)cc1)c1c(Cl)cc(-n2ncc(=O)[nH]c2=O)cc1Cl (stereo unspecified) | inconclusive: 18.6 µM [cytotoxic, partial curve] | inactive | inconclusive: 13.2 µM [cytotoxic, partial curve, poor fit] | inconclusive: 9.35 µM [cytotoxic, full curve, poor fit] |  |  | inactive | inactive | inconclusive: 31.6 µM [cytotoxic, single point] | inactive | inconclusive: 28.2 µM [cytotoxic, single point]
CCCCCNC(=O)N1CCC(CN(Cc2ccc(Cl)cc2)Cc2ccc([N+](=O)[O-])s2)C1 (stereo unspecified) | active: 20.9 µM | inconclusive: 0.264 µM [cytotoxic, full curve, poor fit] |  |  | inconclusive: 18.7 µM [cytotoxic, partial curve, poor fit] | inconclusive: 16.6 µM [cytotoxic, partial curve, poor fit] | inconclusive: 13.2 µM [cytotoxic, partial curve] | inconclusive: 23.5 µM [cytotoxic, partial curve] | active: 28.2 µM | inconclusive: 0.0053 µM [cytotoxic, full curve, poor fit] | inconclusive: 31.6 µM [cytotoxic, single point]

From PubChem BioAssay (NCATS)
